± gives the standard deviation. Over roughly 3,000 sequences, “pre-steady-state target cleavage rate” has its median near 0.0079; the highest 2% begin near 0.2. Only a part is listed here, and it is no random draw.
tested on: MILI (PIWIL2) piRISC loaded with piRNA #2 (26 nt); test: pre-steady-state target cleavage rate (min^-1); MIWI and MILI are mouse PIWI proteins and EfPiwi is from a freshwater sponge; tags in brackets are library labels; higher = faster piRNA-guided slicing of the target; conditions: guide: piRNA #2 5'p-UUAGGUAACCCAGUAGAUCCAGAGGA; auxiliary factor: 500 nM mouse GTSF1
Protocol: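 Cleave-'n-Seq: a library of target RNAs (target site embedded in constant flanks, ACAGCATTCCGCGTTAGTGATATCCG... 5' flank; DNA-blocked outside the site) at 0.1 nM was incubated with 1 nM active mouse MILI or MIWI piRISC (synthetic 5'-monophosphorylated piRNA guide) with or without 500 nM mouse GTSF1 at 33 °C for 1 min to 16 h. Uncleaved targets were sequenced and normalised to non-target controls, and the pooled three trials were fitted to a burst-and-steady-state model to give the pre-steady-state cleavage rate (min^-1; k3 is constrained to at most 1e-4). Sequence is the target site only; target names encode pairing extent (gX:gY) and contiguous / 1-mismatch / 2-mismatch / bulge geometry. Fits with R² ≤ 0 are excluded.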

Sequence	pre-steady-state target cleavage rate
CUUAAGGAGAGCAUCUACUGGGUUACCAAA	0.00707 ± 0.005
CUUAAGGUCUGGAUCUAGUGGGUUAGCUAA	0.00749 ± 0.005
CUUAAGGAGUGGAUGUACAGGGUUACCUAA	0.0392 ± 0.0091
CUUAAGCUCUGGAUCGACUGGGUUACCUAA	0.0478 ± 0.0096
CUUAAGCUCUGGAUGUACUGGGUUACCUUA	0.0568 ± 0.016
CUUAACGUCUGGAUCUAGUGGGUUACCUAA	0.0564 ± 0.0094
CUUAAGGUCUGGAUCUACUGGGUUACCUUA	0.0544 ± 0.012
CUUAAGCUCUCGAUCUACUGGGUUAGCUAA	0.0146 ± 0.0083
CUUAAGCUCUGGAUCUACAGGGUUUCCUAA	0.0336 ± 0.0089
CUUAUGCCUCUGGAUCUACUGGGUUACCUAA	0.142 ± 0.038
CUUAAGGUCUGGAUCUUCUGGGUUACCAAA	0.0122 ± 0.0048
CUUAAGGAGAGCAUCUACAGGGUUACCUAA	0.0304 ± 0.011
CUUAAGGUCUGGAUCUACUGGGUUACCUAG [g2:g23:cont:t1G]	0.112 ± 0.021
CUUAAGCAGUGGAUCUACUGGGUUACCUAA	0.0705 ± 0.017
CUUAUCCUCUGCAUCUACAGGGUUACCUAA	0.101 ± 0.022
CUUAAGGUCUGUAUCUACUGGGUUACCUAA	0.0419 ± 0.017
CUUAUCCUCAGGAUCUACUGGGUUACGUAA	0.0113 ± 0.0056
CUUAUCCUCUGGAUCUACUGAGUUACCUAA	0.0631 ± 0.016
CUUAAGGUCUGGAUCUAGUGGGUUACCUUA	0.0544 ± 0.015
CUUAACCUCUGGAUCUAGUGGGUUUCCUAA	0.0502 ± 0.017
CUUAAGGAGACCUACAACUGGGUAACCUAA	< 0.0001
CUUAUCCUCUGGAUGAUCUGGGUUACCUAA	0.0388 ± 0.012
CUUAAGCUCUCCUUCUACUGGGUUACCUAA	0.0472 ± 0.016
CUUAAGGUCUGGAGUCUACUGGGUUACCUAA	0.0424 ± 0.014

Sequence	pre-steady-state target cleavage rate
CUUAAGGACUCGAUCUACUGGGUUACCUUA	0.00654 ± 0.0038
CUUAUCCUCUGGAUCUAGUGGGUUACCAAA	0.0654 ± 0.012
CUUAAGGAGACGGAUCUACUGGGUUACCUAA	0.0103 ± 0.0042
CUUAAGCUCUGGAUGUACUGGGAUACCUAA	0.0202 ± 0.0073
CUUAAGGUCUGGAUCUACAGGGUUACGUAA	0.059 ± 0.014
CUUAAGGAGAGGAUCUACUGGGUUACCUAA [g2:g20:cont:t1A]	0.0156 ± 0.0072
CUUAUCCUGUGGAUGUACUGGGUUACCUAA	0.084 ± 0.019
CUUAAGGACUGGAACUACUGGGUUACCUAA	0.0228 ± 0.016
CUUAACCUCUGGAUCUACUGGGUUACACUAA	0.179 ± 0.034
CUUAUCCUCUGGAUCUACUGGGUAACCAAA	0.0461 ± 0.017
CUUAAGCUCUGGAACUACUGGGUUACCUAA	0.0845 ± 0.022
CUUAAGGUCUGGAUCUACUGGGUUAUCUAA	0.0655 ± 0.012
CUUAAGCUCUGGUUCUACUGGGUUAGCUAA	0.0824 ± 0.034
CUUAAGGAGUGGCUCUACUGGGUUACCUAA	0.0556 ± 0.017
CUUAAGGAGUGGAUCUACUGUGUUACCUAA	0.00967 ± 0.0061
CUUAAGGUCUGGAAUCUACUGGGUUACCUAA	0.0527 ± 0.013
CUUAACCUGUGGAUCUACUGGGUUACCUUA	0.08 ± 0.019
CUUAAGCUCAGGAUCUAGUGGGUUACCUAA	0.05 ± 0.014
CUUAACCACUGGUUCUACUGGGUUACCUAA	0.112 ± 0.019
CUUAACCUCUGGAUCUACUGGGUUAGCCUAA	0.15 ± 0.035
CUUAAGCUCUGGAUCUACACGGUUACCUAA	0.00855 ± 0.0027
CUUAAGGAGUGGAUCAACUGGGUUUCCUAA	0.00749 ± 0.0043
CUUAAGGUCUGGAUCUACACGGUUACCUAA	0.011 ± 0.0029
CUUAAGGUCUUGGAUCUACUGGGUUACCUAA	0.113 ± 0.026

Sequence	pre-steady-state target cleavage rate
CUUAACCUCUCGAUCUACUGGCUUACCUAA	0.00579 ± 0.0036
CUUAAGGAGAGGUUCUACAGGGUUACCUAA	0.0098 ± 0.0054
CUUAAGGAGAGGAUCUACUGGGUAACCUAA	0.00614 ± 0.0037
CUUAAGGUCUGGACUCUACUGGGUUACCUAA	0.0367 ± 0.014
CUUAUCCUCUGGUUCAACUGGGUUACCUAA	0.225 ± 0.063
CUUAACGACUGGAUCUACUGGGUUACCUAA	0.0763 ± 0.016
CUUAACCUCUGGAACAACUGGGUUACCUAA	0.0723 ± 0.02
CUUAACCUCUGGAUCUUCUGGGUUACCUUA	0.0805 ± 0.02
CUUAAGGUCUGGAACUACAGGGUUACCUAA	0.0426 ± 0.011
CUUAAGCUGUGGAACUACUGGGUUACCUAA	0.0243 ± 0.013
CUUAAGCUCUGCAUCUACUGGGUUACCUUA	0.0789 ± 0.017
CUUAUCCUCUGGUUCUACUGGCUUACCUAA	0.00964 ± 0.005
CUUAAGGUACUGGAUCUACUGGGUUACCUAA	0.0665 ± 0.022
CUUAAGGAGACCUAGAUGUGGGUUACCGAA	< 0.0001
CUUAAGCACUGGAUCUACUGGGUUACCAAA	0.0791 ± 0.017
CUUAUCCUCUGGAUGUUCUGGGUUACCUAA	0.0834 ± 0.015
CUUAUCCUGAGGAUCUACUGGGUUACCUAA	0.0211 ± 0.0074
CUUAAGGAGUGGAUCUACUGGGAUUACCUAA	0.0083 ± 0.0035
CUUAAGGAGUGGAACUACAGGGUUACCUAA	0.0101 ± 0.0072
CUUAAGGUCUGGAUCUACUGGGUUACCGUAA	0.0456 ± 0.014
CUUAAGCUCUGGAUCUACUGGGUUACACUAA	0.112 ± 0.019
CUUAACCUCUGGAUCUACUGGGUUACCUCAA	0.09 ± 0.019
CUUAAGCUGUCGAUCUACUGGGUUACCUAA	0.0193 ± 0.0091
